PubChem BioAssay AID686978 (National Center for Advancing Translational Sciences (NCATS), 2013)
Where “and” joins values, the source holds several entries; their conditions need not be identical. Equal entries are not always repeated. Hit rate of the full screen: of about 420,000 compounds, about 64,000 (15%) were called active. Inconclusive results, whose numbers are uncertain, are shown with a selection of clear calls. Calls follow the shape of the dose curve; as a rule, active = well fitted inhibition curve with a large enough effect; inconclusive = small, poorly fitted or top-dose-only effect; inactive = flat fitted curve, though single readings scatter. No potency is given beside an inconclusive call; the fits are too rough.
% is scaled to controls: 0 for no effect and ±100 for the full control effect; potency is read from the fitted curve at half-maximal effect; tags tell the direction and shape of the fitted curve.

Test: qHTS for Inhibitors of human tyrosyl-DNA phosphodiesterase 1 (TDP1): qHTS in cells in absence of CPT; also: nearly all actives have a fitted effect of over 55% in size
Conditions: DT40 Tdp1-/- hTDP1 cells, no CPT, ATP luminescence, 48 h; activity change, negative = growth inhibition: at 46.2 µM (top of the series) unless noted
Summary of the method: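 Chicken DT40 Tdp1-/- cells complemented with human TDP1, screened without camptothecin (DMSO vehicle only), 400 cells/well. Compounds pin-transferred, cells incubated at 37 °C for at least 48 hr. Growth read as ATP-dependent luminescence (CellTiter-Glo, 30 min at RT).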
For `Cc1ccc(COc2ccc(C(=O)NN)cc2)cc1`, the Potency was inconclusive [inhibitor, single point]. With `COc1cc(/C=C2/SC(=S)N(c3c(C)n(C)n(-c4ccccc4)c3=O)C2=O)ccc1O` the Potency was inconclusive [inhibitor, single point]. For `Nc1[nH]c(C(=O)c2ccccc2)c(-c2ccc(Cl)c(F)c2)c1C(=O)NCCc1c[nH]c2ccccc12`, the Potency was inconclusive [inhibitor, single point]. For `CC(=O)C(=Cc1cc(C)n(-c2ccccc2)c1C)C(C)=O`, the Potency was inconclusive [inhibitor, single point]. For `COc1ccccc1-c1nc(-c2cccc(C)c2)no1`, the Potency was inconclusive [inhibitor, partial curve, poor fit]. In the case of `Cc1sc(NC(=S)NC(=O)c2cccs2)nc1-c1ccc(CC(C)C)cc1`, the Potency is reported as inconclusive [inhibitor, single point]. In the case of `COCc1ccc(C(=O)N2CCCC(N3CCN(c4ccccc4C)CC3)C2)s1` (centres undefined), the Potency is reported as inconclusive [inhibitor, single point]. In the case of `Cc1ccc(CSC2=Nc3ccccc3C3=NC(CC(=O)NCc4ccc5c(c4)OCO5)C(=O)N23)cc1` (centres undefined), the Potency is reported as inconclusive [inhibitor, single point]. For `O=C1C2CC=CCC2C(=O)N1CC1CCCO1` (centres undefined), the Potency was inconclusive [inhibitor, single point]. With `CNc1oc(-c2cccs2)nc1C#N` the Potency was inconclusive [inhibitor, partial curve]. For `CC(=O)c1ccc(NC2=C(N3CCOCC3)C(=O)c3ccccc3C2=O)cc1`, the Potency was active: 20.6 µM. For `COc1ccccc1NC(=O)N(CCN(C)C)Cc1cc2cc(C)ccc2[nH]c1=O`, the Potency was inconclusive [inhibitor, full curve, poor fit]. In the case of `C=CCn1c(-c2ccc(N)cc2)nc2ccccc21`, the “activity change, negative = growth inhibition” value is reported as inactive: -22.2%. For `COc1ccc(CNc2nc(-c3ccoc3)nc3ccccc23)c(OC)c1`, the Potency was inconclusive [inhibitor, single point]. In the case of `CCOC(=O)C1CCN(c2ccc(C(N)=O)cc2[N+](=O)[O-])CC1`, the Potency is reported as inconclusive [inhibitor, single point]. For `COc1cccc(NC(=O)CN(C)C(=O)c2c(C)noc2C)c1`, the “activity change, negative = growth inhibition” value was inactive: -8.67%. With `Cc1cnc(C(=O)NNC(=O)c2ccc(Br)cc2)cn1` the Potency was active: 5.8 µM. With `Cc1cc(-n2c(C)cc(C(=O)CSc3ccccn3)c2C)no1` the Potency was inconclusive [inhibitor, single point]. With `Cc1ncc2c(c1CNS(=O)(=O)N(C)C)CCN(C(=O)/C=C/c1ccccc1)C2` the “activity change, negative = growth inhibition” value was inactive: -8.56%. With `CS(=O)(=O)Nc1cccc(-c2ccc3ncnc(NCc4cccs4)c3c2)c1` the Potency was inconclusive [inhibitor, single point]. With `COc1ccc(CCCc2nnc(SCC(=O)Nc3ccc(C)cc3)o2)cc1C` the “activity change, negative = growth inhibition” value was inactive: 1.82%. In the case of `O=c1c(-c2cccc(F)c2)nc2cncnc2n1Cc1ccccc1Cl`, the “activity change, negative = growth inhibition” value is reported as inactive: -13.6%. For `Cc1cccc(OCC(=O)N(Cc2ccco2)c2c(N)n(Cc3ccccc3)c(=O)[nH]c2=O)c1`, the “activity change, negative = growth inhibition” value was inactive: 0.277%. In the case of `CN1C(=O)c2ccccc2C(C(=O)O)C1c1cccc(F)c1` (centres undefined), the Potency is reported as active: 25.9 µM. In the case of `COc1cc([N+](=O)[O-])ccc1NC(=O)Nc1ccc2c(c1)OCCO2`, the Potency is reported as inconclusive [inhibitor, single point]. In the case of `COc1ccc([C@H]2CC(=O)C=C(c3ccc(NC(C)=O)cc3)C2)cc1OC`, the Potency is reported as inconclusive [inhibitor, single point]. With `C#CCOCCOCCOCCNc1nc(N2CCN(C(=O)[C@H](Cc3ccc(O)cc3)n3cc([C@@H](N)CC(C)C)nn3)CC2)nc(N2CCN(C(=O)[C@H](Cc3cc4ccccc4[nH]3)n3cc([C@@H](N)CC(C)C)nn3)CC2)n1` the “activity change, negative = growth inhibition” value was inactive: -7.62%. With `CN(C)S(=O)(=O)N(CC(=O)N1CCC(Cc2ccccc2)CC1)c1ccccc1` the Potency was inconclusive [inhibitor, partial curve]. For `CC(=O)CCCC(NS(=O)(=O)CCC(Cl)(Cl)Cl)c1ccccc1` (centres undefined), the “activity change, negative = growth inhibition” value was inactive: -20%. For `O=C(CSc1nc2ccccc2c(=O)[nH]1)Nc1nc(-c2ccc(Br)cc2)cs1`, the Potency was inconclusive [inhibitor, single point]. In the case of `CC1(C)Cc2c(sc3nc(-c4cccs4)n(N)c(=O)c23)CO1`, the Potency is reported as active: 23.1 µM. With `CCCS(=O)(=O)Nc1cc(-c2cn3ccc(C)cc3n2)ccc1C` the Potency was inconclusive [inhibitor, single point]. With `O=C(Nc1ccc2nc(SCC(=O)N3CCCc4ccccc43)sc2c1)c1ccc(Cl)cc1` the Potency was active: 5.8 µM. For `Cc1noc(C)c1COc1cccc(C(=O)NCc2cccc(Cl)c2)c1`, the Potency was inconclusive [inhibitor, single point]. With `Nc1nc2n[nH]nc2c(=O)[nH]1` the Potency was active: 2 µM and active: 7.31 µM. With `O=c1[nH]c2ccc(NS(=O)(=O)c3ccc4ccccc4c3)cc2[nH]1` the Potency was inconclusive [inhibitor, partial curve]. With `CC(C)Oc1ccc(Nc2ncnc3ccccc23)cc1` the Potency was inconclusive [inhibitor, single point]. For `Cc1[nH]c2ccccc2c1Cc1nnc(SCc2ccccc2)o1`, the Potency was inconclusive [inhibitor, single point]. For `CCCc1cc(=O)[nH]c(SCC(=O)Nc2cc(S(=O)(=O)N3CCOCC3)ccc2Cl)n1`, the “activity change, negative = growth inhibition” value was inactive: -14.5%. For `COc1cc(/C=N/Nc2nn3cnnc3c3ccccc23)cc(OC)c1OC`, the Potency was active: 16.4 µM. In the case of `CSc1cccc(NC(=O)CN(C)S(=O)(=O)c2ccc(C)cc2)c1`, the Potency is reported as active: 16.4 µM. With `Cc1cc(NC(=O)/C=C/c2ccccc2)no1` the “activity change, negative = growth inhibition” value was inactive: -14.5%. In the case of `Clc1ccc2nc(-c3cccc(SC4CCCCC4)c3)c(NCc3ccccc3)n2c1`, the Potency is reported as inconclusive [inhibitor, single point]. In the case of `CCC(C(=O)NCCc1cc(OC)ccc1OC)n1nc(C)c2c(C)n(-c3ccccc3)nc2c1=O` (centres undefined), the Potency is reported as inconclusive [inhibitor, single point].
